Reference: patent US9493440B2, “Compounds inhibiting leucine-rich repeat kinase enzyme activity” (Merck Sharp & Dohme Corp., priority 2013, dated 2016)

Biological target: T1, LRRK2(G2019S mutation, GST-LRRK2(amino acids 970-2527)) (Homo sapiens (Human), UniProt Q5S007, G2019S)
Experiment: LRRK2 5 mM ATP LanthaScreen Assay
Format: biochemical
Conditions: mean IC50
Experimental: LRRK2 5 mM ATP LanthaScreen™ Assay
Results are analysed using Assay Data Analyzer. […] Results are analysed using Assay Data Analyzer.

SMILES | IC50 [nM]
CN1CCN(c2cc(-c3n[nH]c4ccc(OC5(C)CC5)cc34)ncn2)CC1 [Example 47] | 10
CC(C)N1CCN(c2cc(-c3n[nH]c4ccc(OC5(C)CC5)cc34)ncn2)CC1 [Example 75] | 14
CO[C@@H]1CCN(c2cc(-c3n[nH]c4ccc(OC5(C)CC5)cc34)ncn2)C1 [Example 11] | 12
CC1(Oc2ccc3[nH]nc(-c4cc(N5CCC6(CCCO6)CC5)ncn4)c3c2)CC1 [Example 25] | 2.4
CC1(Oc2ccc3[nH]nc(-c4cc(N5CCC(C(=O)O)CC5)ncn4)c3c2)CC1 [Example 10] | 8.8
CC1(Oc2ccc3[nH]nc(-c4cc(N5CCN(C(=O)C6CC6)CC5)ncn4)c3c2)CC1 [Example 40] | 9
CCS(=O)(=O)N1CCN(c2cc(-c3n[nH]c4ccc(OC5(C)CC5)cc34)ncn2)CC1 [Example 36] | 3.7
C[C@@H]1CN(c2cc(-c3n[nH]c4ccc(OC5(C)CC5)cc34)ncn2)C[C@H](C)N1C [Example T2] | 0.49
CC1(Oc2ccc3[nH]nc(-c4cc(N5CCC6(CC5)CNC(=O)C6)ncn4)c3c2)CC1 [Example 38] | 5.1
CC1(Oc2ccc3[nH]nc(-c4cc(N5CCN(S(C)(=O)=O)CC5)ncn4)c3c2)CC1 [Example 3] | 11

Biological target: T1, LRRK2(G2019S mutation, GST-LRRK2(amino acids 970-2527))
Experiment: LRRK2 Km ATP LanthaScreen Assay
Conditions: not given

IC50 [nM] | SMILES
0.8 | COC[C@H]1CN(c2cc(-c3n[nH]c4ccc(OC5(C)CC5)cc34)ncn2)CCO1 [Example R2]
2.3 | CCOCC1(Oc2ccc3[nH]nc(-c4cc(N5CCOCC5)ncn4)c3c2)CC1 [Example 202]

SMILES | IC50 [nM]
C[C@@H]1CN(c2cc(-c3n[nH]c4ccc(OC5(C)CC5)cc34)ncn2)C[C@H](C)N1C [Example T2] | 0.8

Same assay, conditions: read-out: LRRK2 IC50; Km ATP LanthaScreen Assay, mean IC50

SMILES | IC50 [nM]
CN1CCN(c2cc(-c3n[nH]c4ccc(OC5(C)CC5)cc34)ncn2)CC1 [Example 47] | 1.2
CC(C)N1CCN(c2cc(-c3n[nH]c4ccc(OC5(C)CC5)cc34)ncn2)CC1 [Example 75] | 1.6
CO[C@@H]1CCN(c2cc(-c3n[nH]c4ccc(OC5(C)CC5)cc34)ncn2)C1 [Example 11] | 1.85
CC1(Oc2ccc3[nH]nc(-c4cc(N5CCC6(CCCO6)CC5)ncn4)c3c2)CC1 [Example 25] | 1.21
CC1(Oc2ccc3[nH]nc(-c4cc(N5CCC(C(=O)O)CC5)ncn4)c3c2)CC1 [Example 10] | 1.3
CCC1(Oc2ccc3[nH]nc(-c4cc(N5CCO[C@@H](C)C5)ncn4)c3c2)CC1 [Example 207] | 1.61
C[C@@H]1CN(c2cc(-c3n[nH]c4ccc(OC5(C)CC5)cc34)ncn2)CCN1CC1CC1 [Example 137] | 1.7
CCC1(Oc2ccc3[nH]nc(-c4cc(N5C[C@@H](C)O[C@@H](C)C5)ncn4)c3c2)COC1 [Example 197] | 0.89
CC1(Oc2ccc3[nH]nc(-c4cc(N5CCN(CCF)C(=O)C5)ncn4)c3c2)CC1 [Example 224] | 1.81
CC1(Oc2ccc3[nH]nc(-c4cc(N5CCN(C(=O)C(C)(C)O)CC5)ncn4)c3c2)CC1 [Example 97] | 1.1
COCCN(C)c1cc(-c2n[nH]c3ccc(OC4(C)CC4)cc23)ncn1 [Example 14] | 4.44
CC1(Oc2cc3c(-c4cc(N5CCc6nccnc6C5)ncn4)n[nH]c3cc2F)CC1 [Example 188] | 1.4
CN1CCC2(CCN(c3cc(-c4n[nH]c5ccc(OC6(C)CC6)cc45)ncn3)CC2)C1=O [Example 39] | 0.71
CC1(Oc2cc3c(-c4cc(N5CCn6ncnc6C5)ncn4)n[nH]c3cc2F)CC1 [Example 165] | 1.5
CN1CCC2(CCN(c3cc(-c4n[nH]c5ccc(OC6(C)CC6)cc45)ncn3)C2)C1=O (stereo not drawn) [Example 30] | 0.95
CC1(Oc2ccc3[nH]nc(-c4cc(NC5CCOCC5)ncn4)c3c2)CC1 [Example 236] | 1.71
C[C@@H]1CN(c2cc(-c3n[nH]c4ccc(OC5(C)CC5)cc34)ncn2)CCN1CCC(F)(F)F [Example 143] | 0.9
C[C@H]1CN(c2cc(-c3n[nH]c4ccc(OC5(C)CC5)cc34)ncn2)CCN1Cc1ccco1 [Example 128] | 0.7
CC(CC1CC1)N1CCN(c2cc(-c3n[nH]c4ccc(OC5(C)CC5)cc34)ncn2)C[C@@H]1C (stereo partly drawn) [Example 132] | 1.5
C[C@H]1CN(c2cc(-c3n[nH]c4ccc(OC5(C)CC5)cc34)ncn2)CCO1 [Example 85] | 5.8
CC1(Oc2ccc3[nH]nc(-c4cc(N5CCN(C(=O)C6CC6)CC5)ncn4)c3c2)CC1 [Example 40] | 1.07

SMILES | IC50 [nM]
COCC(=O)N1CCN(c2cc(-c3n[nH]c4ccc(OC5(C)CC5)cc34)ncn2)CC1 [Example 96] | 2
CC(C)N1CCN(c2cc(-c3n[nH]c4ccc(OC5(C)CC5)cc34)ncn2)CC1=O [Example 18] | 1.5
C[C@H]1[C@H](O)[C@@H](O)CN1c1cc(-c2n[nH]c3cc(F)c(OC4(C)CC4)cc23)ncn1 [Example 157] | 1.31
CC(N1CCN(c2cc(-c3n[nH]c4ccc(OC5(C)CC5)cc34)ncn2)CC1)C1(C)CC1 (stereo not drawn) [Example 122] | 2.8
CCN1CCN(c2cc(-c3n[nH]c4ccc(OC5(C)CC5)cc34)ncn2)C[C@@H]1C [Example 133] | 0.6
CC1(Oc2ccc3[nH]nc(-c4cc(N5CCN(c6ncccn6)CC5)ncn4)c3c2)CC1 [Example 50] | 4.3
CC1(Oc2ccc3[nH]nc(-c4cc(N5CCN(CCF)CC5)ncn4)c3c2)CC1 [Example 230] | 0.45
C[C@@H]1CN(c2cc(-c3n[nH]c4ccc(OC5(C)CC5)cc34)ncn2)CCN1Cc1cocn1 [Example 136] | 0.7
CC1(Oc2cc3c(-c4cc(N5CC[C@H](CO)C5)ncn4)n[nH]c3cc2F)CC1 [Example 167] | 1.1
CC(C)N1CCN(c2cc(-c3n[nH]c4ccc(OC5(C)CC5)cc34)ncn2)C[C@@H]1C [Example 135] | 1.5
CC1C2CCCN2CCN1c1cc(-c2n[nH]c3ccc(OC4(C)CC4)cc23)ncn1 (stereo not drawn) [Example 110] | 2.8
CCC1(Oc2ccc3[nH]nc(-c4cc(N5C[C@H](O)[C@@H](N)[C@@H]5C)ncn4)c3c2)CC1 [Example 214] | 3.1
CC1(Oc2ccc3[nH]nc(-c4cc(N5CCC6(CC5)CNC(=O)C6)ncn4)c3c2)CC1 [Example 38] | < 0.6
COC1CCN(c2cc(-c3n[nH]c4ccc(OC5(C)CC5)cc34)ncn2)CC1 [Example 229] | 1.03
CC1(Oc2ccc3[nH]nc(-c4cc(N5Cc6nnc(C(F)(F)F)n6C(C)(C)C5)ncn4)c3c2)CC1 [Example 102] | 5.5
CC1(Oc2cc3c(-c4cc(N5CCN(C6CCS(=O)(=O)C6)CC5)ncn4)n[nH]c3cc2F)CC1 (stereo not drawn) [Example 166] | 0.8
CC1(Oc2ccc3[nH]nc(-c4cc(N5C[C@@H]6C[C@H]5CN6Cc5ccccc5)ncn4)c3c2)CC1 [Example 91] | 5.8
CC1(Oc2ccc3[nH]nc(-c4cc(N5CC[C@@H](F)C5)ncn4)c3c2)CC1 [Example 69] | 3.3
CCCN1CCN(c2cc(-c3n[nH]c4ccc(OC5(C)CC5)cc34)ncn2)CC1 [Example 42] | 1.41
CC1(Oc2ccc3[nH]nc(-c4cc(N5CCN(S(C)(=O)=O)CC5)ncn4)c3c2)CC1 [Example 3] | 2.26
C[C@@H]1CN(c2cc(-c3n[nH]c4ccc(O[C@@H]5CCOC5)cc34)ncn2)C[C@H](C)O1 [Example 162] | 12

SMILES | IC50 [nM]
COCCN1CCN(c2cc(-c3n[nH]c4cc(F)c(OC5(C)CC5)cc34)ncn2)CC1 [Example 160] | < 0.52
c1nc(-c2n[nH]c3ccc(O[C@@H]4CCOC4)cc23)cc(N2CCOCC2)n1 [Example 161] | 12.6
CN(C)[C@H]1CCN(c2cc(-c3n[nH]c4cc(F)c(OC5(C)CC5)cc34)ncn2)C1 [Example 183] | 2
C[C@@H]1CN(c2cc(-c3n[nH]c4cc(F)c(OC5(C)CC5)cc34)ncn2)C[C@H](C)O1 [Example 150] | 0.79
Cc1nc2c(o1)CCN(c1cc(-c3n[nH]c4cc(F)c(OC5(C)CC5)cc34)ncn1)C2 [Example 173] | 2.1
CC(CC1CC1)N1CCN(c2cc(-c3n[nH]c4ccc(OC5(C)CC5)cc34)ncn2)CC1 (stereo not drawn) [Example 125] | 1
CC(O)C(=O)N1CCN(c2cc(-c3n[nH]c4ccc(OC5(C)CC5)cc34)ncn2)CC1 (stereo not drawn) [Example 94] | 1.6
CC1(C)CN(c2cc(-c3n[nH]c4ccc(OC5(C)CC5)cc34)ncn2)CCO1 [Example 109] | 1.8
CC1(Oc2ccc3[nH]nc(-c4cc(N5CCN(C6CC6)CC5)ncn4)c3c2)CC1 [Example 2] | 2.77
CC1(Oc2ccc3[nH]nc(-c4cc(N5CCn6nc(C7CC7)nc6C5)ncn4)c3c2)CC1 [Example 83] | 4.2
CC1(Oc2cc3c(-c4cc(N5CCOC(C(F)(F)F)C5)ncn4)n[nH]c3cc2F)CC1 (stereo not drawn) [Example 168] | 1.9
CC1(Oc2ccc3[nH]nc(-c4cc(N5CCO[C@@H](c6ccccc6)C5)ncn4)c3c2)CC1 [Example 95] | 6
CC1(Oc2ccc3[nH]nc(-c4cc(N5CCC6(CC5)CNC(=O)CO6)ncn4)c3c2)CC1 [Example 113] | 0.9
CCOC(=O)N1CCN(c2cc(-c3n[nH]c4cc(F)c(OC5(C)CC5)cc34)ncn2)CC1 [Example 184] | 3.9
CC1(Oc2ccc3[nH]nc(-c4cc(N5CCC6(CCC(=O)N6)CC5)ncn4)c3c2)CC1 [Example 32] | 0.86
C[C@H]1CN(c2cc(-c3n[nH]c4ccc(OC5(C)CC5)cc34)ncn2)CCN1Cc1ncco1 [Example 129] | 0.6
CC1(Oc2ccc3[nH]nc(-c4cc(N5CCN(C(=O)CO)CC5)ncn4)c3c2)CC1 [Example 93] | 1.3
CCC1(Oc2ccc3[nH]nc(-c4cc(N5CCN(C)C(=O)C5)ncn4)c3c2)CC1 [Example 216] | 1.27
CC1COCCN1c1cc(-c2n[nH]c3ccc(OC4(C)CC4)cc23)ncn1 (stereo not drawn) [Example 13] | 2.29
CCC1(Oc2ccc3[nH]nc(-c4cc(N5C[C@@H](C)O[C@@H](C)C5)ncn4)c3c2)CC1 [Example 210] | 1.14
